PubChem BioAssay AID1508624 (National Center for Advancing Translational Sciences (NCATS), 2021)
The whole screen tested about 48,000 compounds, of which about 120 (0.25%) were called active. The inconclusive results got no clear call from the source; some entries with a clear call stand among them for comparison. Calls follow the shape of the dose curve; as a rule, active = well fitted activation curve with a large enough effect; inconclusive = small, poorly fitted or top-dose-only effect, or another doubt; inactive = no such curve, though single readings can be large or run the other way. Potencies beside an inconclusive call are fits to weak or partial responses and may not hold up.

test: Primary qHTS for Identification of Small Molecule Activators of Huntingtin-Antisense Promoter Activity; conditions: HEK293 HTT-AS promoter firefly luciferase reporter, 24 h; activity change, positive = activation: at 57.5 µM (top of the series), percent change from vehicle, -100% = no light unless noted; also: nearly all actives have a fitted effect of over 55% in size
Procedure, shortened: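 HEK293 Fluc reporter, 2,500 cells/well, 24 h pre-culture; cpds up to 57.5 uM final, 24 h 37 degrees C; Dual-Glo, 10 min RT; normalized vehicle = 0%, zero RLU = -100%.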
Potency is read from the fitted curve at half-maximal effect; tags tell the direction and shape of the fitted curve.

| SMILES | Potency | activity change, positive = activation |
| --- | --- | --- |
| COc1ccc(CNc2nc3c(-c4ccc(C)cc4)nnn3c3ccccc23)cc1 | inconclusive: 14.1 µM [activator, partial curve] | – |
| CN(C)c1ccc(Nc2nc(N)n(C(=O)c3c(F)cccc3F)n2)cc1 | active: 24.3 µM | – |
| Cc1ccc(NC(=O)Cn2c(=O)n(CCCC(=O)NCc3ccc4c(c3)OCO4)c(=O)c3ccccc32)cc1 | inactive | – |
| Fc1ccc(-c2cc(-c3nc(-c4ccccc4)no3)[nH]n2)cc1 | inconclusive: 6.31 µM [activator, partial curve] | – |
| Cc1ccccc1CNC(=O)c1cccc(NC(=O)c2nsc3ccccc23)c1 | inconclusive: 1 µM [activator, partial curve, poor fit] | – |
| Cc1cc(C)c2c(n1)SCC(=O)N2CC(=O)Nc1ccc(C)c(C)c1 | inactive | – |
| COC(=O)c1ccccc1NC(=O)c1ccc2nc(Cc3ccccc3)oc2c1 | inactive | – |
| COc1cc2c(cc1OC)C(COc1ccc(C(C)C)cc1)N(C(=O)c1ccc(S(=O)(=O)N3CCCC3)cc1)CC2 (stereo not given) | – | inconclusive: -70% [activator] |
| CC(C)c1ccc(NC(=O)c2ccc3c(c2)CCCN3S(C)(=O)=O)cc1 | inactive | – |
| CCOc1ccc(NC(=O)Nc2cccc(C)n2)cc1 | inconclusive: 2.24 µM [activator, full curve] | – |
| Cc1cc(C)n2nc(-c3ccc(Cl)cc3)nc2n1 | inconclusive: 1.78 µM [activator, full curve, poor fit] | – |
| COc1ccc(-c2cn3nc(N4CCC(C(=O)NCc5cccc(Cl)c5)CC4)sc3n2)cc1 | inconclusive: 2.24 µM [activator, full curve, poor fit] | – |
| COC(=O)c1ccc(Nc2nc(-c3ccc(C)cc3)nc3ccccc23)cc1 | inactive | – |
| CCOc1ccc2nc(N3CCCC(C(=O)NCCc4ccc(C)cc4)C3)sc2c1 (stereo not given) | inconclusive: 1.78 µM [activator, full curve, poor fit] | – |
| Cn1c(/C(C#N)=C/c2ccc(C(F)(F)F)cc2)nc2ccccc21 | inconclusive: 14.1 µM [activator, partial curve, poor fit] | – |
| Cc1ccn2c(Nc3ccc4c(c3)OCCO4)c(-c3ccc(N(C)C)cc3)nc2c1 | inconclusive: 1 µM [activator, full curve, poor fit] | – |
| COc1ccc(-c2cn3nc(SCC(=O)Nc4cc(C)cc(C)c4)ccc3n2)cc1 | inconclusive: 1.12 µM [activator, full curve, poor fit] | – |
| Cc1cc(N2CCC(C)CC2)nc2ccc(NC(=O)CCC(=O)N3CCN(c4ccccc4F)CC3)cc12 | inconclusive: 3.55 µM [activator, full curve] | – |
| Cc1cccc(-n2nnc(-c3nc(-c4cccs4)no3)c2N)c1 | inconclusive: 0.891 µM [activator, full curve, poor fit] | – |
| COc1ccc(-c2cc3ccc(O)c(CN4CCCCC4C)c3oc2=O)cc1OC (stereo not given) | inconclusive: 20 µM [activator, single point] | – |
| Cc1cc(C)c2oc(-c3cccc(NC(=O)COc4ccccc4Cl)c3C)nc2c1 | – | inconclusive: -40.2% [activator] |
| COc1cccc(-c2nc3c(C#N)c[nH]n3c2NC2CCC(C)CC2)c1 (stereo not given) | inactive | – |

| SMILES | Potency | activity change, positive = activation |
| --- | --- | --- |
| Cc1ccc(CNC(=O)CN2C(=O)COc3ccccc32)cc1 | inconclusive: 2.82 µM [activator, full curve] | – |
| CCCCc1nn2c(=O)cc(COC(=O)c3cccs3)nc2s1 | inconclusive: 14.1 µM [activator, partial curve, poor fit] | – |
| Cc1ccc(CNC(=O)c2cccc(Nc3nc4ccccc4n4nnnc34)c2)cc1 | inconclusive: 39.8 µM [activator, single point] | – |
| Cc1noc(-c2ccc(-c3noc(-c4ccccc4)n3)cc2)n1 | inconclusive: 25.1 µM [activator, partial curve] | – |
| CCC[C@H](NC(=O)C(C#N)=Cc1cccc(Br)n1)c1ccccc1 | inactive | – |
| CCOC(=O)CC(NC(=O)CCc1c(C)nc2cc(-c3ccccc3)nn2c1C)c1ccc(C)cc1 (stereo not given) | inactive | – |
| COc1ccc(CNc2nc(-c3ccco3)nn2C(=O)c2ccccc2C)cc1 | active: 8.91 µM | – |
| CCc1ccc(-c2nc(CSCC(=O)NCc3ccc(C)cc3)c(C)o2)cc1 | inactive | – |
| C#C[C@]1(O)CC[C@H]2[C@H]3CCc4cc(OC)ccc4[C@H]3CC[C@@]21C | inconclusive: 24.3 µM [activator, single point] | – |
| CC(C)c1ccc(NC(=O)Cn2c(=O)oc3cc(S(=O)(=O)N4CCCC4)ccc32)cc1 | inactive | – |
| Cc1c(C(=O)NCc2ccccc2Br)oc2ccc3c(c12)C(=O)CC(C)(C)O3 | inconclusive: 2.24 µM [activator, full curve, poor fit] | – |
| CCOc1ccc(-c2cc(NC(=O)Nc3ccccc3C(F)(F)F)c(C(=O)OC)s2)cc1 | inconclusive: 10 µM [activator, partial curve, poor fit] | – |
| CCc1ccc(CNC(=O)c2ccc3c(c2)nc2n3CCCCC2)cc1 | inconclusive: 10 µM [activator, partial curve, poor fit] | – |
| O=C(c1ccc(F)cc1)n1nc(-c2ccc(Cl)cc2)nc1NCc1ccco1 | inconclusive: 2 µM [activator, full curve] | – |
| CCc1cccc(NC(=O)COc2cc(=O)n(CC)c3ccccc23)c1 | inactive | – |
| CCOC(=O)c1cccc(NC(=O)c2sc3nc[nH]c(=O)c3c2C)c1 | inconclusive: 2 µM [activator, full curve, poor fit] | – |
| Cc1ccc(Nc2nccc(N(C)c3ccc4c(C)n(C)nc4c3)n2)cc1S(N)(=O)=O | inactive | – |
| CN(C)c1ccc(CNc2nc(-c3ccco3)nn2C(=O)c2cccc([N+](=O)[O-])c2)cc1 | inconclusive: 4.47 µM [activator, partial curve, poor fit] | – |
| CCOC(=O)c1noc2ncn(CC(=O)O)c(=O)c12 | inconclusive: 5.01 µM [activator, full curve] | – |
| CCOc1ccc(-c2ccc(CO)o2)cc1N | inconclusive: 1.58 µM [activator, partial curve, poor fit] | – |
| Cc1ccc(Nc2c(-c3ccc(N(C)C)cc3)nc3ccccn23)cc1 | active: 2 µM | – |
| COc1ccc(NC(=O)c2c(NC(=O)COc3ccc(Cl)cc3)sc3c2CCCCC3)cc1 | inconclusive: 4.47 µM [activator, full curve] | – |

| SMILES | Potency | activity change, positive = activation |
| --- | --- | --- |
| Cc1ccc(C)c(NC(=O)C(=O)NCC(c2cccnc2)N2CCN(c3ccc(F)cc3)CC2)c1 (stereo not given) | – | inconclusive: -26.8% [activator] |
| Cc1cccc(C2NC(=O)c3c(sc4c3CCN(C)C4)N2)c1O (stereo not given) | inconclusive: 11.2 µM [activator, partial curve] | – |
| CCC(=O)Nc1ccccc1-c1nc2ccccc2n(C(C)C(=O)Nc2ccc(OC)cc2)c1=O (stereo not given) | inconclusive: 10 µM [activator, partial curve, poor fit] | – |
| COc1ccccc1C(=O)Nc1cc(-c2ccc(C)cc2)no1 | inconclusive: 15.8 µM [activator, partial curve, poor fit] | – |
| CCOc1ccc(C(=O)Nc2onc3c2CCCC3)cc1 | inconclusive: 1.12 µM [activator, full curve, poor fit] | – |
| CC1CCCCN1C(=O)CSc1n[nH]c(-c2ccccc2)n1 (stereo not given) | inconclusive: 10 µM [activator, partial curve, poor fit] | – |
| O=C(Nc1cccc(Cl)c1)c1cc(-c2ccccc2)on1 | inconclusive: 39.8 µM [activator, partial curve, poor fit] | – |
| Cc1c(Cl)cccc1NC(=O)c1cc2sccc2n1Cc1ccc(F)cc1 | inactive | – |
| Cc1ccc(CNC(=O)CCc2c(C)nc3nc(CNC(=O)OC(C)(C)C)nn3c2C)cc1 | – | inconclusive: -46.6% [activator] |
| COc1cc(C(=O)n2nc(-c3ccco3)nc2NCc2ccc(Cl)cc2)cc(OC)c1OC | inconclusive: 2 µM [activator, full curve, poor fit] | – |
| Cc1ccc(S(=O)(=O)Nc2cccc(-c3ccc(N4CCCCC4)nn3)c2)s1 | inconclusive: 1.58 µM [activator, partial curve, poor fit] | – |
| COc1ccc(N2CCN(C(=O)c3cc4c(=O)n(Cc5ccccc5)ccc4nc3C)CC2)cc1 | inactive | – |
| CC1CCN(S(=O)(=O)c2cc(C(=O)NCc3ccc(N(C)C)cc3)n(C)c2)CC1 | inactive | – |
| N[C@@H](Cc1cc(I)c(O)c(I)c1)C(=O)O | inactive | – |
| COc1cccc(C(=O)Nc2ccc3nc4n(c(=O)c3c2)CCCCC4)c1 | inconclusive: 2.24 µM [activator, full curve] | – |
| COc1ccc(C2=C(C)C(=O)N(Cc3ccc(C(=O)Nc4ccc(F)cc4C)cc3)S2(=O)=O)cc1 | inactive | – |
| COc1ccc(-c2nc(C)c(CCNC(=O)c3ccco3)s2)cc1 | inconclusive: 2.51 µM [activator, full curve] | – |
| Cc1ccc(S(=O)(=O)n2nc(-c3ccccc3)nc2NCc2ccccc2Cl)cc1 | – | inconclusive: 20.5% [activator] |
| Cc1ccc(-c2cc(C(=O)N3CCN(S(=O)(=O)c4ccc(Br)s4)CC3)[nH]n2)cc1C | – | inconclusive: -52.7% [activator] |
| Cc1cc(C)n2nc(NCc3ccccc3Cl)nc2n1 | inconclusive: 0.562 µM [activator, full curve, poor fit] | – |
| O=C(Nc1ccc([N+](=O)[O-])cc1Cl)c1cc(Cl)ccc1O | – | inconclusive: -91.1% [activator] [at 25.1 µM, percent change from vehicle, -100% = no light] |
